Source: the supplement of paper PMC11417369
± gives the standard deviation of the averaged measurements. The list shows a part of the results.

These sequences were tested on PfAP2-G AP2 domain (GST-tagged) (assay: gcPBM binding intensity (ln(normalized median fluorescence intensity)); higher = stronger DNA binding).
Method in brief: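 GST-tagged P. falciparum DNA-binding domains, expressed in E. coli (about 25 μg on average), were applied for 1 h to an Agilent 4 × 180k array of primer-extended double-stranded 36-bp intergenic genomic probes plus negative controls. The binding buffer was 1× PBS with 1% milk, 0.2 mg/ml BSA, 0.5% salmon testes DNA and 0.03% Triton X-100. Bound protein was detected with Alexa488 anti-GST antibody and scanned at 488 nm. Binding intensity is the highest Masliner-normalised natural-log median intensity across replicate spots of either probe orientation.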

Row | Sequence | gcPBM binding intensity (ln)
1 | AACTTTATTCCTAATTGTACACATATATATATATAT [XGTACX_site6823] | 11.5 ± 0.84
2 | ATACATATATGTGTGTGTACATAAATGTATATATTT [XGTACX_site6242] | 11.3 ± 0.91
3 | GATTTATATAATTCAAGTACTAAAAATATTTTTAAT [XGTACX_site5285] | 10.8 ± 0.61
4 | CGTATAACATATGACACACACACATACATACACAAA [CACACA_site1803] | 10.3 ± 0.34
5 | TTAATAATAAATGAAAGTACATATAAAAAAAAAAAA [XGTACX_site717] | 11 ± 0.91
6 | AAAAAAAATATCTATGCATGTAATATTATGATATTG [TGCATGCA_site546] | 9.585 ± 0.078
7 | TAACATTAAAATAAAAGTACTTAATAATATTAAGTA [XGTACX_site5920] | 11.1 ± 0.87
8 | CAGATTTATTCAAACGCATGCTGTTTTAAAATAAAA [TGCATGCA_site874] | 9.87 ± 0.21
9 | TGTATATTTGATTCATGTACATATTTTATTTTAACT [XGTACX_site5169] | 11.2 ± 0.49
10 | TAAGACTATTAAAAAATTGAGTACATGAACTGTTCA [GTGCAC_negctrl_site670] | 11.4 ± 0.98
11 | AAATATAAAAAATATACACACATATATAATATATAT [CACACA_site2963] | 9.84 ± 0.014
12 | TATATATATATATATACACACATACATATATATATT [CACACA_site8185] | 10.2 ± 0.34
13 | ACATAAATATATTTTTCACACATCCTTAGTTATGAA [CACACA_site5179] | 10.1 ± 0.18
14 | ATCCGCTGCCTTTTGGTGCAGAACATAATCATGTAA | 10.2 ± 0.35
15 | TTTAAAATATTAAAATGTACATATATATATATATAT [XGTACX_site6784] | 11 ± 0.63
16 | ATATTGTAAGTAAACACACACACATCTATAGGTATA [CACACA_site6462] | 10.06 ± 0.071
17 | AATGTATTTAAACTGACACACAAAAAAAATAAAATA [CACACA_site2138] | 10.4 ± 0.3
18 | AATGGTAATCCACATACACACACACCGACACATATA [CACACA_site8876] | 10.3 ± 0.26
19 | ATCGCGAAGTAGCATTCACACACAGCAAAATATATA [CACACA_site9162] | 9.95 ± 0.16
20 | AACATTTATATAAAAGAACACACATATAAAATATTA [CACACA_site9199] | 9.9 ± 0.12
21 | AAAAAAATTACGCAAGTGCATATAATTTAACAAAAA | 9.95 ± 0.14
22 | ATATATATATATCACGCACACACGAATTTTAAATAT [CACACA_site3131] | 10.3 ± 0.42

Row | Sequence | gcPBM binding intensity (ln)
23 | AACAATAGTAAAAATACACACATTAAACTTCATTTC [CACACA_site2126] | 9.87 ± 0.14
24 | ATACAATGATATATACATATATATATATATATATAT [TGCATGCA_negctrl_site359] | 10.3 ± 1
25 | AAAAAAAAAAAAAAAAAAAAAAAAAAAAAAAAAAAA [CACACA_negctrl_site204] | 11.2 ± 0.58
26 | CATTTACCCTTATTAACACACAAAATAAAATACGCT [CACACA_site7249] | 10.2 ± 0.16
27 | AAATAACAAAAGAAGGTGCTCATAAAAATTCATACA [GTGCAC_site9864] | 10.1 ± 0.24
28 | AAAAAAAAAAAACATACACACATACATACATATATA [CACACA_site8222] | 9.86 ± 0.099
29 | CACATACACATACAAACACACATTATGTATATATAT [CACACA_site1599] | 10.1 ± 0.11
30 | GAAAGGACAAGAATAGTGCACATGCAATGTTATTTT [GTGCAC_site9985] | 10.4 ± 0.21
31 | ACAAAATTTTTAAGAACACACAAAAATGTACTATCG [CACACA_site2550] | 10.9 ± 0.53
32 | AATCATGCTCCGGAAAGTACATAAATAAATAAATAA [XGTACX_site1690] | 11.2 ± 1.1
33 | AAACAATTTTTTAAAAGTACTTGAAAATTGTGAAAT [XGTACX_site2461] | 11.2 ± 0.68
34 | ATATATACAACTAAAGAACACACATCATTGTTCATT [CACACA_site9224] | 9.84 ± 0.13
35 | TTCTATATATTTGGAAGTACATTATATTTATTTTTT [XGTACX_site3172] | 11.1 ± 0.73
36 | TAAAATTTTTGTTTTTGTACGAAACATCAATTTTAC [XGTACX_site4963] | 10.7 ± 0.34
37 | TTATTTATAAGTAATATTATATATTCTTTTAATACA [CACACA_negctrl_site471] | 9.615 ± 0.049
38 | CATATATAAATATGTACACACATATGTATGATCTCA [CACACA_site3868] | 11.4 ± 0.81
39 | ATAGGCAAAAAGTGTACACATTCATTTATATAAATA [CACACA_site4480] | 11.7 ± 0.79
40 | TTATATATAAATGTGTGTACTTATAAAATAATCATT [XGTACX_site5370] | 11.3 ± 0.86
41 | AATGGTATAAACAATACACACATAATATAAATATTG [CACACA_site6878] | 10.1 ± 0.13
42 | TTTATTTGTTCATGCGTGCACTTGATAACAATGTAC [GTGCAC_site9561] | 11 ± 0.53
43 | TTTTTTTTTGTTAAAGTGCATATATTAAATTTTCCT [GTGCAC_site9677] | 9.97 ± 0.17
44 | GGAAAAAAATATAAAAGTACTTTTTATTTATTTTAT [XGTACX_site7418] | 11.1 ± 0.57
